This note sets out measurements from PMC6606709, “Granzyme A Stimulates pDCs to Promote Adaptive Immunity via Induction of Type I IFN” (Frontiers in Immunology, 2019).

The target in assay [1] is T1, mouse TLR9-3xFLAG (mouse) (UniProt Q9EQU3).
T1 sequence: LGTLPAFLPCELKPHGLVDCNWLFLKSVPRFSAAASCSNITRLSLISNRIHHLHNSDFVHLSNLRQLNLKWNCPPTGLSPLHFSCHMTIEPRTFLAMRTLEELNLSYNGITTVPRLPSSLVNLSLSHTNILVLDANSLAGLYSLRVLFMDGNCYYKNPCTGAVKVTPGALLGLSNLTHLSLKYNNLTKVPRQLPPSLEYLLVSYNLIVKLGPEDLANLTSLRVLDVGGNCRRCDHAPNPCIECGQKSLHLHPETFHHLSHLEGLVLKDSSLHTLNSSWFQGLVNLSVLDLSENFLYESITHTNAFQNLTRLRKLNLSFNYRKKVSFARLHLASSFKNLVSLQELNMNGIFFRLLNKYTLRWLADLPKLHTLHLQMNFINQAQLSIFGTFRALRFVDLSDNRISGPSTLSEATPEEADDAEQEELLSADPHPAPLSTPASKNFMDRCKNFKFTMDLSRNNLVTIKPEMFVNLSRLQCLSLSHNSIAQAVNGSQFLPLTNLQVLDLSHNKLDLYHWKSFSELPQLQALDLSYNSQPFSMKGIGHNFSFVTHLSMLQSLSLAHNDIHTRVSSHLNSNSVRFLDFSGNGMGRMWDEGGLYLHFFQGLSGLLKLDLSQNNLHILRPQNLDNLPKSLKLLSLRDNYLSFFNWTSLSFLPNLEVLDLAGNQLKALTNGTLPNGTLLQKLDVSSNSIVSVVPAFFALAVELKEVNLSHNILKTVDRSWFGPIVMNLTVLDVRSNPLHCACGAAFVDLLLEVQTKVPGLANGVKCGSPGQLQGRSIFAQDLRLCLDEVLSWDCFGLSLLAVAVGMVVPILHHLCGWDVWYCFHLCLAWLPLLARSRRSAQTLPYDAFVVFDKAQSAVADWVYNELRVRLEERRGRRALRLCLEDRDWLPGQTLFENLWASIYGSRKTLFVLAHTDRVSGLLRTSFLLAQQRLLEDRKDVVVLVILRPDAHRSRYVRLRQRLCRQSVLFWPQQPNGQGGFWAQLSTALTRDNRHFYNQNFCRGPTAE
Description: co-IP; HEK293T co-transfected with mTLR9-3xFlag and gzmA-cMyc; lysis in 20 mmol/L Tris HCl pH 7.4, 150 mM NaCl, 1% NP40; IP with anti-FLAG M2, blot with anti-Myc; 4°C.

Assay [2] deals with T2, endogenous TLR9 of mouse FL-DCs (mouse (endogenous in FL-DCs)) (UniProt Q9EQU3).
T2 sequence: T1 sequence
Description: co-IP; primary FL-DCs treated with 3 μg/ml recombinant GzmA for 8 h, then lysed; IP with anti-TLR9 (5G5), blot with anti-TLR9 or anti-GzmA; 4°C; only the binder purified.

Results are given in words; binding and its absence hold for the method and conditions named. In cells and extracts the contact can be indirect. Some binding calls cover weakened binding; strength is not graded here. Sequences can lack the tags named with a protein.

B1: GzmA (exons 2-3) (Ile29-Arg118)-cMyc (domain or fragment, UniProt P11032 29-118)
chain: IIGGDTVVPHSRPYMALLKLSSNTICAGALIEKNWVLTAAHCNVGKRSKFILGAHSINKEPEQQILTVKKAFPYPCYDEYTREGDLQLVR
Regarding B1, the binding entry in assay [1] was “binds”.

B2: GzmA (exon 3-4) (Gly73-Asn208)-cMyc (domain or fragment, UniProt P11032 73-208)
chain: GKRSKFILGAHSINKEPEQQILTVKKAFPYPCYDEYTREGDLQLVRLKKKATVNRNVAILHLPKKGDDVKPGTRCRVAGWGRFGNKSAPSETLREVNITVIDRKICNDEKHYNFHPVIGLNMICAGDLRGGKDSCN
Take B2: the binding result in assay [1] is listed as “no binding”.

B3: GzmA-cMyc, processed form of mouse granzyme A (exon 2-5, Ile29-Val260) (enzyme, UniProt P11032 29-260)
chain: IIGGDTVVPHSRPYMALLKLSSNTICAGALIEKNWVLTAAHCNVGKRSKFILGAHSINKEPEQQILTVKKAFPYPCYDEYTREGDLQLVRLKKKATVNRNVAILHLPKKGDDVKPGTRCRVAGWGRFGNKSAPSETLREVNITVIDRKICNDEKHYNFHPVIGLNMICAGDLRGGKDSCNGDSGSPLLCDGILRGITSFGGEKCGDRRWPGVYTFLSDKHLNWIKKIMKGSV
B3: the binding result in assay [1] was “binds”.

B4: recombinant granzyme A (GzmA), mouse, residues 29-260, histidine-tagged (enzyme, UniProt P11032 29-260, looked up)
chain: B3 chain
notes: mouse granzyme A, residues 29-260; also called recombinant GzmA
With B4, the binding entry in assay [2] was “binds”.

B5: GzmA (exons 4-5) (Leu119-Val260)-cMyc (domain or fragment, UniProt P11032 119-260)
chain: LKKKATVNRNVAILHLPKKGDDVKPGTRCRVAGWGRFGNKSAPSETLREVNITVIDRKICNDEKHYNFHPVIGLNMICAGDLRGGKDSCNGDSGSPLLCDGILRGITSFGGEKCGDRRWPGVYTFLSDKHLNWIKKIMKGSV
On to B5, for which, in assay [1], the binding entry was “binds”.
